# In PMC4336329 (PLoS ONE, 2015):
# About 14,000 (4.5%) of roughly 310,000 compounds showed an effect of 50% or more. Effects have a minus sign here. Some of the results follow.
# Molecular target: human ether-à-go-go-related gene (hERG) potassium channel (human, UniProt Q12809)
# Test: primary screen, population patch clamp on CHO cells stably expressing hERG
# 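Also: peak tail current of the secondary pulse compared with the same well before compound.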
# Sequence of human ether-à-go-go-related gene (hERG) potassium channel (Q12809 whole entry, looked up): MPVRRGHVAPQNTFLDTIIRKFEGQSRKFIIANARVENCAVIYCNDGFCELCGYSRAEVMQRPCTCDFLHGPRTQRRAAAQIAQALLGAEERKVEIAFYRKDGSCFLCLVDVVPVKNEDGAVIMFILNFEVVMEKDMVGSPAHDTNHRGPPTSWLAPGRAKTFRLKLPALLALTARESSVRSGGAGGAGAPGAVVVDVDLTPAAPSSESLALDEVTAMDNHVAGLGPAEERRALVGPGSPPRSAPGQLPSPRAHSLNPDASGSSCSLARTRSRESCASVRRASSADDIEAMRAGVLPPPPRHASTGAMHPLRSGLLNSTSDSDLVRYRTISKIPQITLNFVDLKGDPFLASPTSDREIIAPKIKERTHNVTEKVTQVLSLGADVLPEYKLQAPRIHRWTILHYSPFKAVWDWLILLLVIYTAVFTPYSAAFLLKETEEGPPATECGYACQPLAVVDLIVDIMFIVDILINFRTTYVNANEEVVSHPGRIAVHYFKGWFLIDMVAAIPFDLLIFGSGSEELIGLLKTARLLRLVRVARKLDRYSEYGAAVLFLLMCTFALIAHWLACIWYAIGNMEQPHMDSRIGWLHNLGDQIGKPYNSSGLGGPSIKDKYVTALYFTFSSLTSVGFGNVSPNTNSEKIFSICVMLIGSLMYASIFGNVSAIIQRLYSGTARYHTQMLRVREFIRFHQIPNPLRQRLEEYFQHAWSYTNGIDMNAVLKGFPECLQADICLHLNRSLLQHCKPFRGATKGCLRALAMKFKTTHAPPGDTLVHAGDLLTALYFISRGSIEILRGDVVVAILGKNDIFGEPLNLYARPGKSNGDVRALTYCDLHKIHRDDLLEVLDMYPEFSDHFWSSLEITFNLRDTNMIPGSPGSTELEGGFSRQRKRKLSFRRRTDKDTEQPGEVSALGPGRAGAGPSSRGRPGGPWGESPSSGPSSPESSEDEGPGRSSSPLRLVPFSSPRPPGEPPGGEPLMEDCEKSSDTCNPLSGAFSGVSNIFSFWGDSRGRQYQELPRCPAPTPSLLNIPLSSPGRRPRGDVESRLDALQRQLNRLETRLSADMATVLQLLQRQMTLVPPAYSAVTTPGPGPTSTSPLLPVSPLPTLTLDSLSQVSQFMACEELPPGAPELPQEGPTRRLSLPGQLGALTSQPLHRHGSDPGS
row,Compound,"hERG current change (%, negative = inhibition) at 10uM [%]"
1,Cc1c(S(=O)(=O)N2CCN(c3cccc(C(F)(F)F)c3)CC2)c(=O)n(C)c(=O)n1C,-2.03
2,O=C(NNC(=O)C1CCN(C(=O)Nc2ccccc2)CC1)c1ccc(F)cc1,11.3
3,Cc1cc(C)c2c(=O)[nH]c(=O)n(Cc3ccccc3)c2n1,6.73
4,COC(=O)Nc1ccc(S(=O)(=O)N2CCCC(C(=O)Nc3cccc4c3OCCO4)C2)cc1 (centres unmarked),5.26
5,CC(O)C(NS(=O)(=O)c1ccc(Cl)cc1)C(=O)OCc1cc([N+](=O)[O-])cc2c1OCOC2 (centres unmarked),-11.8
6,CCC[N+](C)(C)C(C)C(OC(C)=O)c1ccccc1.[I-] (centres unmarked),15.5
7,O=C(CSc1nc2ccccc2o1)NCC(=O)c1ccccc1,-3.02
8,O=C(CNC(=O)c1ccc2c(c1)OCCO2)N/N=C/c1ccc([N+](=O)[O-])cc1,15.9
9,NC(=O)C1CCN(CCCNC2CC(=O)N(Cc3ccc(N4CCCC4=O)cc3)C2=O)CC1 (centres unmarked),8.34
10,CCOC(=O)n1c(=O)n(Cc2cccc(F)c2)c2ccccc21,-30.5
11,CCOC(=O)c1nonc1NC(C)=O,16.2
12,CCCCC(OC(=O)c1ccco1)C(=O)NCc1ccc(C)cc1 (centres unmarked),-0.428
13,CCOC(=O)Cn1c(=NC(=O)c2ccc([N+](=O)[O-])s2)sc2ccccc21,-14.3
14,COc1ccc(S(=O)(=O)N2CCN(c3nc(-c4cccnc4)nc4ccccc34)CC2)cc1,-39
15,COCCCn1c(SCC(=O)Nc2ccc(C(C)=O)cc2)nc2ccccc2c1=O,-51.5
16,Cc1c(NC(=S)NC(=O)c2cccc(Cl)c2)c(=O)n(-c2ccccc2)n1C,15.5
17,CC(C)C1Nc2ccc(C(=O)NCc3ccco3)cc2NC1=O (centres unmarked),-5.2
18,O=S(=O)(NCc1ccco1)c1cnc(Cl)c(Cl)c1,-6.19
19,COc1ccccc1NC(=O)/C=C/c1cc([N+](=O)[O-])ccc1OC(F)F,2.86
20,COc1ccc(CN2CN(S(=O)(=O)c3ccccc3)c3nc4ccccc4nc32)cc1,1.04
21,CC1(C(=O)CSc2nc3ccccc3[nH]2)CCC(=O)O1 (centres unmarked),-70.8
22,CNC(=S)N/N=C/c1ccc(N(C)C)cc1,0.611

row,Compound,"hERG current change (%, negative = inhibition) at 10uM [%]"
1,CC(C)(C)CN1CCC(Oc2cccc(C(=O)N3CCNC(=O)C3(C)C)c2)CC1,-15.2
2,O=C1CC(N2CCC(c3nc4ccccc4s3)CC2)C(=O)N1Cc1ccccc1 (centres unmarked),-43.9
3,CCOC(=O)c1c(C)[nH]c(C(=O)COC(=O)CNS(=O)(=O)c2ccc(C)cc2)c1C,11.8
4,CN(C)C(=O)c1ccc(-n2cccn2)nc1,7.34
5,CCOC(=O)c1c(C)[nH]c(C(=O)N2CCN(CC)CC2)c1C,20.7
6,Cl.N=c1sccn1CC(=O)Nc1cc(S(=O)(=O)N2CCCC2)ccc1Cl,-39.5
7,C[C@H](NC(=O)Nc1cccc(Br)c1)C(=O)O,14
8,COc1cccc(C2CC(c3cccc(Br)c3)n3nc(N)nc3N2)c1 (centres unmarked),-12.4
9,CCOCCCNCc1ccc(OCCC(C)C)c(OC)c1.O=C(O)C(=O)O,-16.2
10,CC(=O)Nc1ccc(C(=O)Nc2ccc(S(=O)(=O)N3CCOCC3)cc2)cc1,18.1
11,Cl.O=C(CCN(CCO)Cc1ccccc1)Nc1ccc(Br)cc1,-46.1
12,O=C(Nc1ccc(Cl)cc1)c1cccc(OC(=S)N2CCOCC2)c1,9.45
13,COc1ccc(C(=S)N2CCN(c3ccccc3C)CC2)cc1,-22.7
14,CCn1cc(/C=C(\NC(=O)c2cc(OC)c(OC)c(OC)c2)C(=O)N2CCN(C)CC2)c2ccccc21,13.7
15,Br.CCN(CC)CCn1c(=N)n(CCOc2ccccc2)c2ccccc21,-53.6
16,Cl.OC(COc1ccc(OCC(O)CN2CCCCCC2)cc1)CN1CCCCCC1 (centres unmarked),9.75
17,CC1=C(C(=O)OC2CCCC2)C(c2coc3ccc(C)cc3c2=O)C2=C(CCCC2=O)N1 (centres unmarked),-13.1
18,CCOC(=O)CSc1nnc(CSc2nc3sc4c(c3c(=O)[nH]2)CCC4)n1-c1ccccc1,-14.8
19,Cc1ccccc1CC(=O)NCCN1CCOCC1,26.8
20,COc1ccc2cc(-c3csc(-c4cccnc4)n3)ccc2c1,22.6
21,Cc1ccc(C(=O)NNC(=O)CSc2nnc(C3CC3)n2C)cc1,1.12
22,O=[N+]([O-])c1ccc(N2CCOCC2)cn1,15.4

row,Compound,"hERG current change (%, negative = inhibition) at 10uM [%]"
1,CCC(C)NC(=O)Cn1c(=O)n(CCCC(=O)NCc2ccccc2Cl)c(=O)c2ccccc21 (centres unmarked),-4.22
2,O=c1c2ccccc2[nH]c(=S)n1CCCN1CCN(c2ccccc2F)CC1,-2.57
3,O=C(N/N=C/c1ccccn1)c1cc(-c2ccc(Cl)cc2)nc2ccccc12,-10.4
4,CCc1nc(N2CCN(C(=O)c3ccccc3)CC2)c2c3c(sc2n1)CCCC3,-12.2
5,CN1[C@@H]2CC[C@H]1CC(OC(=O)C1C=Nc3ccccc31)C2.Cl (some centres unmarked),-38.7
6,CCc1ccccc1NC(=O)CNC(=O)CCNC(=O)Nc1ccccc1,-9.35
7,CCC1=C(OC(=O)N(CC)CC)N2C(=O)OC(=NCCc3c[nH]c4ccccc34)[C@]2(C)[C@H]2C1=CC[C@H]1C(=O)N(CC(=O)OC)C(=O)[C@H]12,-2.11
8,Cc1cccc2nc(-c3ccco3)oc(=O)c12,25.4
9,Cc1ccnc(NC(=O)c2ccc(NS(=O)(=O)/C=C/c3ccccc3)cc2)c1,-6.2
10,CC(=O)Nc1ccc(NC(=O)C(C)OC(=O)CCCOc2ccc(Cl)c(C)c2)cc1 (centres unmarked),24.9
11,CCOC(=O)c1cc2sccc2n1CC(=O)N1CCc2ccccc21,1.9
12,O=C(Nc1cccc(S(=O)(=O)N2CCCCC2)c1)C1CC(=O)N(Cc2ccccc2)C1 (centres unmarked),-23.9
13,O=C(c1cc(-c2ccc(Br)cc2)on1)N1CCc2ccccc2C1,21.7
14,O=C(Nc1ccncc1)c1ccccc1[N+](=O)[O-],25.4
15,Cc1cc(C)cc(NC(=O)C2CC(=O)n3ncnc3N2)c1 (centres unmarked),3.95
16,CC1CCCC(NC(=O)CCCn2ncn3c(cc4occc43)c2=O)C1C (centres unmarked),-4.88
17,COC(=O)c1ccccc1NS(=O)(=O)c1ccc2c3c(cccc13)C(=O)N2,-2.31
18,Br.C=CCN1CCc2cc(O)c(O)cc2C(c2ccccc2)C1 (centres unmarked),-23.9
19,CCN(C(=O)c1ccccc1)c1ccc([N+](=O)[O-])cc1,-24.3
20,COCCCN(CCNC(=O)c1ccc(NC2=NC3CS(=O)(=O)CC3S2)cc1)Cc1ccco1 (centres unmarked),-4.81
21,COc1ccc(CCNC(=O)CSCc2c(F)cccc2Cl)cc1OC,-2.8
22,COc1ccc(S(=O)(=O)NC2CCCC2)cc1C(N)=O,4.15

row,Compound,"hERG current change (%, negative = inhibition) at 10uM [%]"
1,O=c1n(-c2cccc(Cl)c2)c(=O)n2n1CCC2,-6.81
2,CC(C)OC(=O)CSc1nnc(-c2ccc(Cl)cc2Cl)o1,-7.24
3,COc1ccc(/C(C)=N/Nc2nc(C)cc(-c3ccccc3)n2)cc1,11.5
4,COCc1cc(C(C)=O)ccc1OCC(=O)Nc1ccc(NC(C)=O)cc1,22.3
5,Cc1ccc2cc(CN(Cc3ccco3)C(=O)c3ccccc3)c(=O)[nH]c2c1C,7.42
6,CCN(CC)S(=O)(=O)c1cccc(C(=O)Nc2ccc(S(=O)(=O)NC3=NCCCCC3)cc2)c1,0.391
7,CCOc1ncccc1C(=O)Nc1cccc(-c2nc3cccnc3s2)c1,5.74
8,COc1ccc(CCNS(=O)(=O)c2ccc(Br)s2)cc1,-5.73
9,COc1cccc(CN2CC(C(=O)NC3CCC(O)CC3)CCC2=O)c1 (centres unmarked),9.7
10,Cc1nn(C(=O)CCC(=O)NCc2ccc(OC(C)C)cc2)c2ccccc12,11.2
11,COc1ccccc1C1C([N+](=O)[O-])=C(N)Oc2c1c(=O)oc1ccccc21 (centres unmarked),13.2
12,CC1=CC(C)(C)[N+](C)(C)c2ccc(C)cc21.[I-],15.5
13,CCc1cc(=O)[nH]c(SCc2cccnc2)n1,15.6
14,CCOC(=O)c1ccc(-c2c(-c3ccc(OC)cc3)oc(=O)c3cc(OC)c(OC)cc23)cc1F,13.1
15,Cc1cc(C(=O)O)c(C)n1C1CC1,31.8
16,[O-][n+]1ccccc1SCc1ccccc1,9.4
17,C=CCOc1nc2c(c(=O)n(C)c(=O)n2C)n1Cc1ccccc1Cl,-6.73
18,O=C(CCCN1C(=O)c2cccc3cccc(c23)C1=O)N1CCN(Cc2ccc3c(c2)OCO3)CC1,-21.3
19,COc1ccc(-c2nc(C(N)=O)c3[nH]c(=O)n(-c4ccccc4OC)c3n2)c(OC)c1,-1.91
20,CCCCCC[N+](C)(C)CC/C=C1/c2ccccc2Sc2ccc(Cl)cc21.[Br-],-75.2
